# Reference: the supplement of paper PMC3334620
# The full ranking holds about 33,000 sequences; the median of “E-score (-0.5 to 0.5)” is about -0.021, and the highest 2% start at about 0.32. This is one part of the list.
# Target: T1, Zap1 (UniProt P47043)
# T1 sequence: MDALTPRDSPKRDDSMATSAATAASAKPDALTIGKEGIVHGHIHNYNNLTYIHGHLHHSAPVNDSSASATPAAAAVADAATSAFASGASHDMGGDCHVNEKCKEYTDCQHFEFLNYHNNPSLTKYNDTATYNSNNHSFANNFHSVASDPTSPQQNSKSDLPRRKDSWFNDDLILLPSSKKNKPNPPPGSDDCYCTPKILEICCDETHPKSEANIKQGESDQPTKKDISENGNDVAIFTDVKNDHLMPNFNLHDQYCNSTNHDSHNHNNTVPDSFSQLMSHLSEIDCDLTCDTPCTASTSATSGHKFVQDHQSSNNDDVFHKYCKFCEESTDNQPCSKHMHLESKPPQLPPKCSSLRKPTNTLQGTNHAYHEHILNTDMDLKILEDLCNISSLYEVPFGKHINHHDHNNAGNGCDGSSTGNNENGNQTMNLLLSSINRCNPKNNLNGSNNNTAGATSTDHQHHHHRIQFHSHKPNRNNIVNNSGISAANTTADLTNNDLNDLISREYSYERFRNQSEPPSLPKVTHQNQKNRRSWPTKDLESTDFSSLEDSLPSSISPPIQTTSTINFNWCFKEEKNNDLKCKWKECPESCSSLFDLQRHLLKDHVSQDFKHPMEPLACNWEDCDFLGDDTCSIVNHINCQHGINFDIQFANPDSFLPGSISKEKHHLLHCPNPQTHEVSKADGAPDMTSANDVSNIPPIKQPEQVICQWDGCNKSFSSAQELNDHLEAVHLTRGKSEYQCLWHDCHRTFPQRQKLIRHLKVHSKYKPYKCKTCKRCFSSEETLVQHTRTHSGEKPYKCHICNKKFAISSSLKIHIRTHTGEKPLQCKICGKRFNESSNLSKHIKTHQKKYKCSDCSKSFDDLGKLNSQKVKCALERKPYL
# Experiment: PBM E-score (8-mer binding enrichment) (E-score (-0.5 to 0.5)); higher = stronger / more preferred TF binding; most listed sequences are background and not binding sites
# Conditions: protein concentration: 200 nM; construct: GST-full length
# Procedure, shortened: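 Yeast transcription factors, full-length or as DNA-binding domains, were expressed with a GST tag using PURExpress in vitro transcription/translation. At about 100-200 nM they were applied to universal all-10-mer Agilent arrays, double-stranded by primer extension on fresh or once-stripped slides. Fluorescent anti-GST detected bound protein, and masliner normalised the scans. E-scores for ungapped eight-base words, pooled with reverse complements, came from the Universal PBM Analysis Suite.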
row,Sequence,PBM E-score
1,TCCCGGCA,-0.355
2,TCTAACAA,0.0492
3,CCAATCAC,-0.0499
4,CAAGAAAG,0.107
5,CCACCCCC,-0.194
6,CTTGTATA,-0.0122
7,AGGAACCA,0.0162
8,GTCTGTGA,0.196
9,ATGTGCTG,0.0861
10,AGTACTGC,-0.161
11,ACCTGCAT,0.153
12,CTAATAAG,0.0363
13,GGTCCGCA,0.168
14,AGGCAGTC,-0.266
15,ATCCTCAT,-0.205
16,CCAACGTC,-0.216
17,CCTTCTCC,-0.165
18,CTCAATTA,0.0765
19,CGACACGA,0.0841
20,AACGAAGC,-0.0293
21,AAACCTGT,0.0581
22,CAGACGGA,-0.0953
23,ACATATTC,0.0274
24,ACTAGCAT,-0.128
25,CGCATACC,0.226

row,Sequence,PBM E-score
1,AGGCGTAA,-0.126
2,AAGGCATG,-0.161
3,GAGTCGCA,-0.302
4,GGCAATGA,-0.157
5,CAGGTGAG,-0.253
6,AAAGTTTC,0.122
7,CAAGTACA,-0.0513
8,CACGCTGG,-0.141
9,GGCCCCAC,-0.102
10,CTGACTTC,-0.14
11,AGCAACCG,-0.0288
12,CATCAGGG,0.124
13,ACCCTCCA,0.341
14,AACGGGCT,-0.184
15,GGTGATTA,0.2
16,AATCGGCC,-0.107
17,CCGATCCA,-0.103
18,ATCAGACA,-0.126
19,AACTTGCG,-0.0906
20,CTAGTTAC,0.138
21,AAGGATTA,0.0673
22,GTACATTA,0.262
23,AGGTTGAC,0.0525
24,CTCATGAA,-0.0356
25,AGTTTGTG,-0.0265

row,Sequence,PBM E-score
1,ATAAACAA,0.201
2,AGGGATAT,-0.0838
3,CAGGGGCA,-0.192
4,CTCCTTCA,-0.168
5,CCCATGGC,0.146
6,GTCAAACA,-0.0478
7,GCGTAACA,-0.135
8,AATTTGCA,-0.116
9,CATGTGCC,-0.165
10,CCGTATCC,0.12
11,ATCCACGG,-0.0993
12,GTCCCGTA,-0.163
13,CACACTAC,0.103
14,AATTTAAC,0.267
15,GTAGCATA,-0.115
16,TTAAAAAA,0.253
17,CGAGCGAG,0.122
18,GTAAGGAA,0.0325
19,ACCCCGTG,0.28
20,CCGCTGGA,-0.159
21,CGTAATAC,0.0784
22,ATTATTCG,0.167
23,CTCCAGGC,-0.0429
24,CTTGCGGC,-0.201
25,GGCAGCAA,-0.0446

row,Sequence,PBM E-score
1,AATCCCGG,-0.0056
2,GGCCGGCC,0.0258
3,ACACCCTC,0.312
4,ATGCGACA,-0.013
5,CTTCTGCA,-0.151
6,GCGAACGA,-0.0105
7,ACAATTTA,0.127
8,AACGCACG,-0.062
9,GAATCTGA,-0.144
10,TCACACAA,-0.0334
11,CACGAGCC,-0.257
12,AAGTTTGA,-0.0775
13,AGCTTGCA,-0.0983
14,ACGTCCGA,-0.108
15,AGTCTTAC,-0.146
16,AAGATGTC,-0.155
17,AATCGTGT,-0.0802
18,CTTTCCAA,0.0741
19,AAGCACAT,-0.133
20,AGACGTCA,-0.19
21,AACTCGGA,0.00302
22,CATGGTGG,-0.122
23,CGTATTCC,-0.062
24,GCAGACCC,0.156
25,CGGCAGCC,-0.0872

row,Sequence,PBM E-score
1,AGTCCATA,-0.0532
2,AATCTTAC,0.0643
3,ACTCGGCT,-0.117
4,GATCCGAC,-0.236
5,AGAGATTA,-0.0587
6,ACCCGACG,0.111
7,CATAGGAG,-0.0334
8,ACTAACCA,0.282
9,GCGCCTAA,0.0328
10,CTCACAGC,0.0226
11,ATCTGCGG,0.188
12,ACCAATTG,0.0665
13,CACCGAAA,0.211
14,AAATCCTA,0.0285
15,ACGCCTCC,-0.219
16,ATCCCCAG,-0.166
17,AGAACCGG,-0.0565
18,AGCCGTTG,-0.0541
19,AGGGGGAG,-0.289
20,ACTGAAGA,0.0987
21,ATCTGAAT,0.0618
22,CCGTTGCC,-0.312
23,CCCGGCGC,-0.2
24,GGCTGTCA,-0.0697
25,ACAGGGAG,-0.211

row,Sequence,PBM E-score
1,AGTGCAGG,-0.0594
2,CCGAACTC,-0.0177
3,AGATACCA,0.137
4,ACTCTCAT,-0.0595
5,AGCGGAAA,0.0362
6,CCATGTAA,0.0197
7,TAAGGCAA,-0.0488
8,ATACCTTA,0.184
9,TCAGGCCA,-0.212
10,AGTGTTAG,0.157
11,AGTCATTG,-0.136
12,CCACGGCA,-0.076
13,GGGCTTAC,-0.0196
14,AAGGTGTG,-0.0153
15,CCCCTCAA,-0.068
16,CTACGTCC,-0.0484
17,GTACCCCA,0.35
18,ACAGGGCT,-0.17
19,ACATTACC,0.116
20,ACGTAGCC,-0.161
21,ATTTAAGA,-0.0597
22,ATTAGCCA,0.0457
23,GTCTATCA,-0.0328
24,CCGGGGAC,-0.154
25,ACCTCGAA,0.279

row,Sequence,PBM E-score
1,ACAGGAAA,0.0153
2,ACATGATA,0.0816
3,GCTGTTCA,0.0408
4,GAATACAC,-0.0335
5,ACAGAATA,0.028
6,GCAAGTGA,-0.0999
7,TAGGACAA,-0.015
8,AGGTTACA,0.453
9,CCCGTGGC,-0.133
10,GCCACCTA,-0.103
11,AATCCAAA,0.167
12,CATGGGCA,-0.138
13,GTGCAGCA,-0.159
14,AATTCACG,0.00938
15,CAACCTAC,0.0668
16,AAGTAGGG,-0.00414
17,AACTTTTC,0.118
18,AACTGGGC,-0.173
19,AGGGCCGG,-0.0152
20,AACATCCC,-0.00893
21,GGGACGCA,-0.117
22,ACGAGAAT,-0.0885
